Source: PubChem BioAssay AID624170 (National Center for Advancing Translational Sciences (NCATS), 2012)
Among all 410,000 compounds or so, about 850 (0.21%) were called active. The shares of active, inactive and inconclusive entries below differ from those in the screen. Calls come from the whole dose curve; as a rule, active = well fitted inhibition curve with a large enough effect; inconclusive = small, poorly fitted or top-dose-only effect, or another doubt; inactive = no such curve, though single readings can be large or run the other way. No potency is given beside an inconclusive call; the fits are too rough.

target: Glutaminase kidney isoform, mitochondrial (Homo sapiens) (UniProt O94925); experiment: qHTS for Inhibitors of Glutaminase (GLS); conditions: GLS enzymatic activity, qHTS titration; series mostly up to 45.5 µM; activity change, negative = inhibition: at the top concentration
In short: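 hKGA in 45 mM KH2PO4 pH 8.2, 0.02% Tween-20 with pin-transferred compounds; 1 mM L-glutamine (stock) plus glutamate oxidase/HRP/Amplex Red coupling added. Fluorescence read initially and after 30 min at RT.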
% is set by controls: 0 for no effect and ±100 for the full control effect; potency is the fitted concentration of half-maximal effect; tags give direction and shape of the fitted curve.

Sequence of UniProt O94925 (O94925 whole entry, looked up, canonical isoform): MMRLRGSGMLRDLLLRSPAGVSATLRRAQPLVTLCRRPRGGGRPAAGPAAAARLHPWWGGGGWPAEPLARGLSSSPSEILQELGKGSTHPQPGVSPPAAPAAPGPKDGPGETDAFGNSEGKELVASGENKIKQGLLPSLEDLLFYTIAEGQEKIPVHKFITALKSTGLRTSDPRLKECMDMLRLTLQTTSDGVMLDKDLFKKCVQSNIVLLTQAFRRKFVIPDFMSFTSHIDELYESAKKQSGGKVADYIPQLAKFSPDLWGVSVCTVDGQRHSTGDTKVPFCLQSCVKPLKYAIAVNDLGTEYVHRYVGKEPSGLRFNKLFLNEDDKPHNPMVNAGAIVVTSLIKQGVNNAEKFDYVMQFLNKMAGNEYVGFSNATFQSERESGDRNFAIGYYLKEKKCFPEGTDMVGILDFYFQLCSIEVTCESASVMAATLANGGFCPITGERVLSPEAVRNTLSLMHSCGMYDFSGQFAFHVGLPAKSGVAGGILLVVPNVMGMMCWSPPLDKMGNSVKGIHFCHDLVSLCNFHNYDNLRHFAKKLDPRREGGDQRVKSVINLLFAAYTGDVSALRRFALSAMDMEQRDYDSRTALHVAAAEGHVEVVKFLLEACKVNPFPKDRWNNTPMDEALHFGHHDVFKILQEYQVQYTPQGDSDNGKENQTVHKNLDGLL

| Structure (SMILES) | activity change, negative = inhibition | Potency |
| --- | --- | --- |
| COc1ccc(-c2c(C(F)(F)F)nn(C)c2NC(C)=O)cc1 | inactive: 9.78% | – |
| CC(C)=C1C2CCC1C1C(=O)N(NC(=O)COc3ccc(C(C)(C)C)cc3)C(=O)C21 (centres undefined) | – | inconclusive [inhibitor, single point] |
| Cc1cc(C)nc(OC(C(=O)O)C(OCCc2ccccc2)(c2ccc(F)cc2)c2ccc(F)cc2)n1 (centres undefined) | inactive: 15.9% | – |
| CC(C)CC(=O)N(c1ccc(F)cc1)C1C=CS(=O)(=O)C1 (centres undefined) | inactive: 20.4% | – |
| O=C1CN(c2ccccc2)C(=S)N1C(=O)c1ccc(Br)cc1 | – | inconclusive [inhibitor, single point] |
| COc1ccc(C2=NN(c3nc4ccccc4s3)C(=O)/C2=C\N(C)C)cc1 | – | inconclusive [inhibitor, partial curve, poor fit] |
| Clc1ccc(-c2nn3c(C4COc5ccccc5O4)nnc3s2)cc1 (centres undefined) | – | inconclusive [inhibitor, single point] |
| COc1ccc(-n2c(SCC(=O)NCc3ccco3)nc3sc4c(c3c2=O)CCN(C)C4)cc1 | – | inconclusive [inhibitor, single point] |
| C=CCOC(=O)c1cc(-c2ccc(/C=C3\C(=O)NC(=O)C(C#N)=C3C)o2)ccc1Cl | inactive: -27.5% | – |
| CC(C)NC(=O)c1ccc(Cn2c(SCC(N)=O)nc3ccccc3c2=O)cc1 | inactive: -8.2% | – |
| O=C(Oc1ccc(Br)cc1C(=S)N1CCOCC1)c1ccccc1 | inactive: -7.94% | – |
| COC(=O)/C=C/C(=O)N1CCN(c2ccccc2)CC1 | inactive: 18.4% | – |
| Cc1ccc(-n2nnc3c(=O)n(Cc4cc(C)ccc4C)cnc32)cc1 | – | inconclusive [inhibitor, single point] |
| CCOC(=O)c1c(NC(=O)COC(=O)CNC(=O)c2ccco2)sc(C)c1C | – | inconclusive [inhibitor, single point] |
| CC(C)=C1C2CCC1C1C(=O)N(c3nc(-c4ccc(C(C)C)cc4)c(C)s3)C(=O)C21 (centres undefined) | inactive: -0.613% | – |
| CC/C=C\C/C=C\C/C=C\CCCCCCCC(=O)O | – | active: 22.4 µM |
| CCCN1C(=O)C(=O)c2cc(C)ccc21 | inactive: -7.19% | – |
| O=C(NCc1ccc2c(c1)CCN2C(=O)c1ccccc1)Nc1cccc(C(F)(F)F)c1 | inactive: -8.99% | – |
| N#Cc1cccc2c1-c1ccccc1/C2=N/NC(N)=S | – | inconclusive [inhibitor, single point] |
| O=C(CSCc1ccccc1)Nc1cccc(F)c1 | – | inconclusive [inhibitor, single point] |
| Nc1c(C(=O)c2ccc(Cl)cc2)oc2ccccc12 | inactive: 5.93% | – |
| O=[N+]([O-])c1ccc2c(c1)N([O-])C1(CCCCC1)[N+]2=O | inactive: 2.89% | – |
| C=CCOC(=O)C1=C(C)NC(=O)NC1/C=C/c1ccccc1OC (centres undefined) | inactive: -8.53% | – |
| Oc1ccc(Cl)cc1-c1cc(-c2ccco2)[nH]n1 | – | inconclusive [inhibitor, single point] |
| C/C(=N/NC(=S)Nc1ccccc1)c1ccc2c(c1)OCO2 | – | inconclusive [inhibitor, single point] |

| Structure (SMILES) | activity change, negative = inhibition | Potency |
| --- | --- | --- |
| NS(=O)(=O)c1cccc(NC(=O)CSc2nc3nc(-c4cccs4)cc(C(F)(F)F)c3c(=O)[nH]2)c1 | – | inconclusive [inhibitor, single point] |
| COc1cc(/C=C2\SC(N3CCC(C)CC3)=NC2=O)ccc1O | – | inconclusive [inhibitor, single point] |
| CC(/C=N/NC(=O)c1ccncc1)=C\c1ccccc1 | inactive: 0% | – |
| CN(C)S(=O)(=O)c1ccc(C(=O)OCC2COC(C)(C)O2)cc1 (centres undefined) | – | inconclusive [inhibitor, partial curve, poor fit] |
| CCOc1ccc(CCNC(=O)c2nnc(Cc3ccc(Cl)cc3Cl)o2)cc1OCC | inactive: 1.3% | – |
| O=C(Nc1ccc2c(c1)OCCO2)c1ccccc1F | – | inconclusive [inhibitor, single point] |
| COc1ccc(NC(=O)/C=C/c2ccc(C)o2)cc1S(=O)(=O)N1CCOCC1 | – | inconclusive [inhibitor, single point] |
| Cc1[nH]c(C)c(S(=O)(=O)Nc2cccc(Cl)c2C)c1C(=O)N1CCCCC1 | inactive: 18.9% | – |
| O=C(CCCn1c(=O)[nH]c2ccsc2c1=O)NCc1cccs1 | – | inconclusive [inhibitor, single point] |
| O=C(NNC(=S)Nc1ccccc1)c1cc(-c2cccnc2)nc2ccccc12 | – | inconclusive [inhibitor, partial curve] |
| CC(c1n[nH]c(=S)n1-c1ccccc1)N1CCCCC1 (centres undefined) | – | inconclusive [inhibitor, single point] |
| CC1(C)CC(=O)C=C(NNC(=O)c2cccnc2)C1 | – | inconclusive [inhibitor, single point] |
| Cn1c(=O)n(Cc2ccc(Cl)cc2)c(=O)c2c1nc1n2CCN1Cc1ccco1 | – | inconclusive [inhibitor, partial curve, poor fit] |
| O=C(C1CCC(Cn2c(=O)c3sccc3n(Cc3ccccc3)c2=O)CC1)N1CCOCC1 (centres undefined) | inactive: 4.61% | – |
| CN(Cc1ccco1)C(=O)CSc1nn2c(=O)c(C(C)(C)C)nnc2s1 | inactive: -11% | – |
| CC(=O)Nc1ccc(S(=O)(=O)NNc2cccc(C)c2)cc1 | inactive: 20.2% | – |
| CCOC(=O)c1ccc(S(=O)(=O)N2CCN(CCC#N)CC2)cc1 | inactive: 0.874% | – |
| CCOC(=O)C1=C(C)N=c2s/c(=C\c3ccc(O)c([N+](=O)[O-])c3)c(=O)n2C1c1ccccc1OC (centres undefined) | – | inconclusive [inhibitor, single point] |
| Cc1cc(NC(=O)c2ccc3c(c2)N(Cc2cccc(Cl)c2)C(=O)c2ccccc2S3(=O)=O)ccc1Br | inactive: -12% | – |
| CN(C)C1(CNC(=O)Nc2ccccc2)CCCCC1 | inactive: -11.1% | – |
| CC(C)CCn1nnnc1C(c1ccccc1)N1CCN(C)CC1 (centres undefined) | inactive: 8.81% | – |
| O=C(Nc1ccc(O)c(-c2nc3ccccc3o2)c1)C1(c2ccc(Cl)cc2)CCCC1 | inactive: 8.41% | – |
| CC(=O)Nc1ccc(NC(=O)C(C)OC(=O)c2cccc(S(=O)(=O)N3CCCC3)c2)cc1 (centres undefined) | inactive: -12% | – |
| CN1CCc2c(sc(/N=C/c3ccco3)c2C(N)=O)C1 | – | inconclusive [inhibitor, single point] |
